Laboratory results reported in the supplement of paper PMC11417369.
This is one part of the list.

The sequences below were run on PfSIP2 AP2 domain 1 (GST-tagged) (assay: gcPBM binding intensity (ln(normalized median fluorescence intensity)); higher = stronger DNA binding).
Outline: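 An Agilent 4 × 180k array of primer-extended double-stranded 36-bp intergenic genomic probes, with negative controls, was incubated for 1 h with GST-tagged P. falciparum DNA-binding domains expressed in E. coli. Alexa488 anti-GST antibody detected bound protein, scanned at 488 nm. Binding intensity is the highest Masliner-normalised natural-log median intensity across replicate spots of either probe orientation.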

Row | Sequence | gcPBM binding intensity (ln)
1 | TTTTTTTTTTTTTTAATTAATTACCTTTGAATGTGT [CACACA_negctrl_site393] | 6.92
2 | TAATAATTTTATAAAGTGCATAAAAATAAAAATTTT | 8.89
3 | ATTATTTTTTTATGTTGTACATAATATTTTTTAAAA [XGTACX_site1666] | 7.27
4 | ATATATATGGATGGACGTACGTATGTATGTAATTTC [XGTACX_site4135] | 7.21
5 | TTCCAACATTGTTTTTGTACATAATTAACTGTTATT [XGTACX_site5224] | 7.27
6 | CTTAAAAATAACTGCACACAAAAATAAATACCTTAT [CACACA_site2793] | 7.18
7 | TAATATTTATAAAATAGTACACAGAAAAAGCATTTT [XGTACX_site8948] | 6.97
8 | GAAAAAATATATAAATGTACATATAATAATATCATA [XGTACX_site6788] | 6.95
9 | ATATATATTTTATTATGTACATATAAATATTACACA [XGTACX_site4062] | 7.18
10 | ATAATAAGGTTAAGCACACATATTACAGATATAACT [CACACA_site5791] | 6.9
11 | AAATATTATGTGGCAAGTACATAAAGAAAATGCTTA [XGTACX_site3356] | 6.84
12 | AATAATAATAATAATAGTACATATTATGAATATGAT [XGTACX_site5730] | 7.11
13 | GATCTACATGAAAGGACACACAAATATATATATATA [CACACA_site84] | 9.43
14 | ATAAATATGGAGCACACACACATAAACATACCTATA [CACACA_site6336] | 7.18
15 | TTAAAAATGATTGAATGTACAGATTAATATAATTTT [XGTACX_site7394] | 6.88
16 | TAATTTTTGAAACACACACACATATATATATATATA [CACACA_site94] | 9.2
17 | TTTAAATATATATTTAGTACTTATTCTTAAAATTTT [XGTACX_site624] | 7.15
18 | TTTTTTTTTTTTTGTGCATGTAGATTTATTGTTATA [TGCATGCA_site582] | 7.52
19 | AAAAAAGAATAGCACACACACATATATAAATATAAA [CACACA_site4518] | 6.96
20 | GTAGAGGATTAAGAATGTACACATAAATACATATTT [XGTACX_site8874] | 7.16
21 | AATTATACATACATATATATATTTATATATATATAT [GTGCAC_negctrl_site462] | 8.91
22 | GTTACATACAGATACACACACATATATATATATATA [CACACA_site4652] | 9.57

Row | Sequence | gcPBM binding intensity (ln)
23 | TTATATCCCGTCCTTTATTAAAAAAATTTTTTTTCT [TGCATGCA_negctrl_site582] | 7.03
24 | ATTAAAAAAAAAAGTATACACACTTCTTAATGTCAA [CACACA_site1244] | 6.7
25 | ATGGGTTGTTCAAATAGTACATATGTAGCCCACCAT [XGTACX_site3735] | 7.06
26 | TGCAACAAAATAAACACACACACACTAACACAAAAA [CACACA_site7567] | 7.07
27 | TTTAAAAATAAAAGTACACACATAAACATATTGCAC [CACACA_site6784] | 8.8
28 | TTTTCATTTGAAAGTCGTACAAGTTCGAAAAAAGGA [XGTACX_site6840] | 7.42
29 | CTTAAAAAAACCTTAACACACATAAACTATAATTTA [CACACA_site3055] | 6.83
30 | ATATTATATATATGTGCACACAAAAGATATATATAT [CACACA_site2125] | 9.12
31 | ATAAGCAATAAAAAAACATGCATATTATTATCAACA [TGCATGCA_site1027] | 6.96
32 | ATCAAGCACGGACACACACACACACCCAGACCCCCA [CACACA_site4360] | 7.43
33 | AAGTTAACACAACAGGTGCAAGAAAAGTTTTTAATG | 9.98
34 | TCTTTAATATATAGTGCATGTAAATTTTACAATAAT [TGCATGCA_site242] | 9.82
35 | TATGGTATATACAACACACACACATATGTATATATA [CACACA_site927] | 7.14
36 | AGTTAATGTTTATGTACACACGGTGGGTATATATTT [CACACA_site5785] | 7.11
37 | ATATATATATATATATATATAATTTTTTTTGTTTTT [TGCATGCA_negctrl_site453] | 9.66
38 | GATATCAAAAAGATGGGTACATATATTTAAGTTCAT [XGTACX_site3822] | 6.97
39 | TATATTATTAATTAGGGTACAAAAAAAAAATTTTTT [XGTACX_site7762] | 6.95
40 | TAGGAAAAGAAAAGCACACACATAAATAGATATATA [CACACA_site6382] | 6.78
41 | TTAAATAGAAATAAGACTAACAATGAACCAAAAAAA [CACACA_negctrl_site991] | 6.97
42 | TTTTGAAAAAGTTGCACACAAAATTTAAAAAAAAAA [CACACA_site1632] | 7.35
43 | TGCACAAAATTATGCACACACCTAAAATTAATTTTT [CACACA_site5596] | 8.28
44 | GGCAATGATTTTAGGTGTACTTAAAAATCAAATTAA [XGTACX_site8587] | 7.18
